Results as given in publication PMC4336329 (PLoS ONE, 2015).
The campaign covered roughly 310,000 compounds. About 14,000 (4.5%) showed an effect of 50% or more. Effects have a minus sign here. Some of the results follow.

biological target: human ether-à-go-go-related gene (hERG) potassium channel (human, UniProt Q12809); assay: primary screen, population patch clamp on CHO cells stably expressing hERG
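Also: peak tail current of the secondary pulse compared with the same well before compound.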

Chain of human ether-à-go-go-related gene (hERG) potassium channel (Q12809 whole entry, looked up): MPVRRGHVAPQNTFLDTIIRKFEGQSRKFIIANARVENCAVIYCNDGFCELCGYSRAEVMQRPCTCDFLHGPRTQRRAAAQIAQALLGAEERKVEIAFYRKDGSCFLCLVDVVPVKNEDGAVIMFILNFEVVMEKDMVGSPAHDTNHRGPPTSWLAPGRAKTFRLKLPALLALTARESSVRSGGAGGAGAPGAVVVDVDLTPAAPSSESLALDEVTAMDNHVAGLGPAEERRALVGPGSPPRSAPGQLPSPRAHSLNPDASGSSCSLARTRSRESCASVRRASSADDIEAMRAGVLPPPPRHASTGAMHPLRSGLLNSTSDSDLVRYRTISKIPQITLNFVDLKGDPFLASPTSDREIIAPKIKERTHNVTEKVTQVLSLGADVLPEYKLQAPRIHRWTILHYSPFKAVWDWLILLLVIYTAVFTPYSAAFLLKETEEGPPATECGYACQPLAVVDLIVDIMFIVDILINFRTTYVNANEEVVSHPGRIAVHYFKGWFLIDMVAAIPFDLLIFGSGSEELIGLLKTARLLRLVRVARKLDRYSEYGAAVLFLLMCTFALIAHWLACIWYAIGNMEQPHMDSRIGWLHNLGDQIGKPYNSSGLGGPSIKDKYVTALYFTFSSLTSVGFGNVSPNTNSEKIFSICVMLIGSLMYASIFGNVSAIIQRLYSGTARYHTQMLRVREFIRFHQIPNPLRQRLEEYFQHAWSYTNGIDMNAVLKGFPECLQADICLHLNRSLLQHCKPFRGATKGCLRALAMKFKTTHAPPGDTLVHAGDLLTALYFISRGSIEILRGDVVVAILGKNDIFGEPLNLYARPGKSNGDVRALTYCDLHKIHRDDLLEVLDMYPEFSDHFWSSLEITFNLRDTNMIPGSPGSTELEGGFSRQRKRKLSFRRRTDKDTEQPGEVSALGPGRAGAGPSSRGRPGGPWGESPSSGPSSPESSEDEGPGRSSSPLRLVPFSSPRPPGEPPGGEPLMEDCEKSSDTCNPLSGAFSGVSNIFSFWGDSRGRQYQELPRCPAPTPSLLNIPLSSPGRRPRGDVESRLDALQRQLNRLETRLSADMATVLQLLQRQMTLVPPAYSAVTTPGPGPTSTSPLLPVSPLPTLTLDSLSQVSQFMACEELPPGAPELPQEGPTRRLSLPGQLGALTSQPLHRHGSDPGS

Compound	hERG current change (%, negative = inhibition) at 10uM [%]
CCOc1ccc(N(CC(=O)Nc2nccs2)S(=O)(=O)c2c(C)[nH]c(=O)[nH]c2=O)cc1	29
CCN(CC)C(=S)Nc1ccc(OC)cc1	37.4
CN1CCN(C(=O)CSc2nc3c(c(=O)n(C)c(=O)n3C)n2C)CC1	3.06
COC(=O)CN(c1ccccc1F)S(=O)(=O)c1ccccc1	4.5
O=C(Oc1ccccc1)c1ccc(-n2cnnn2)cc1	12.7
CC(C)CCN(C(=S)Nc1cccc(F)c1)C1CCN(C(C)C)CC1	-42.9
CC(C)(C)OC(=O)N1CCN(C(=O)Cn2cc(CCO)nn2)CC1	35.9
CCOC(=O)N/N=C(/C)c1ccc(N2C(=O)C3CCCCC3C2=O)cc1 (centres unmarked)	20.3
CCCN1CNC(=S)N(c2ccc(C)cc2C)C1	9.15
Cc1ccc(NC(=O)c2cccc(C(=O)Nc3ccc(C)c(C)c3)n2)cc1C	12.7
CC1=C(C(=O)OCc2ccccc2)C(c2cccc(Cl)c2Cl)NC(=O)N1CCCCCC(=O)O (centres unmarked)	-16.5
Cc1ccc(C(=O)N2CCCC(N3CCN(c4cccc(C(F)(F)F)c4)CC3)C2)s1 (centres unmarked)	-51
CC(C)C(NC(=O)OCc1ccccc1)C(=O)NCc1ccc(C(=O)O)cc1 (centres unmarked)	-23.5
CN(/N=C/c1ccccc1)C(=S)c1ccccc1	3.94
Cc1csc2nc(CCNS(=O)(=O)c3cccs3)cn12	-1.3
CCOC(=O)c1[nH]c2ccccc2c1NC(=O)COC	-4.53
COc1ccc(N(C)C(=O)c2cc3c(s2)-c2c(C)cccc2OC3)c(OC)c1	0.641
COC1CCCCC1Nc1ccc(C)c(C)c1 (centres unmarked)	-5.94
Cc1nonc1NC(=O)N1CCCC1	-15.2
COc1ccc(C(=O)CC(=O)C(=O)Nc2ccc(C)c(C)c2)cc1	-12.2
CCCNc1c(NS(=O)(=O)c2ccc(Br)cc2)c(=O)oc2ccccc12	-34.7
CC(C)=C(NC(=O)c1ccccc1Br)C(=O)NCCc1nc2ccccc2[nH]1	3.68
CCc1noc(C)c1C(=O)Nc1cc(Cl)ccc1N1CCOCC1	-17.1
Clc1ccc2c(NCc3cccs3)ncnc2c1	18.5
O=C(Nc1ccc(C(=O)O)cc1)/C(=C\c1ccc([N+](=O)[O-])cc1)NC(=O)c1ccc(Br)cc1	7.58
Cc1ccc(C(=O)N[C@@H](C)CN2C3=NC[C@H](Cc4ccccc4)N3C[C@H]2Cc2ccc(O)cc2)cc1Br	-82.5
